# According to PubChem BioAssay (Tox21):
# “And” between values parts separate entries of the source, which are not always exact repeats. Identical values can stand only once. Inconclusive results, whose numbers are uncertain, are shown with a selection of clear calls. No potency is given beside an inconclusive call; the fits are too rough. The source made the active and inactive calls. The call rests on the fitted dose curve; in most records, active means well fitted curve in the direction sought with a large enough effect in the repeat runs; inconclusive means weak or mixed curves; inactive means no such curve, though single readings can be large; an effect the other way counts as inactive or inconclusive.
# Test: qHTS RealTime-Glo MT Cell Viability Assay in HepG2 cells - 8 hour (AID 1224873); further: nearly all actives have a fitted effect of over 55% in size
# Settings: RealTime-Glo luminescence; series mostly up to 76.8 µM; viability change, negative = cytotoxic: at the top concentration
# Method in brief: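 HepG2 cells mixed with RealTime-Glo MT reagents (NanoLuc plus cell-permeant prosubstrate) were seeded at 600 cells/well, incubated 5 h at 37 C/5% CO2, then pinned with compounds in DMSO; nonlytic luminescence tracked viability during 40 h treatment.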
# On the % scale 0 is the no-effect control and ±100 the full control effect; potency means the concentration at half of the fitted maximal effect; tags describe the fitted curve by direction and shape.
Structure (SMILES),"viability change, negative = cytotoxic",Potency
CCOC(=O)C(C)(C)C,inactive: -3.01%,
CCCCCCC1CCCC(=O)O1 (stereo unspecified),inactive: 1.17%,
Clc1nnc(Cl)c2ccccc12,,"inconclusive [falling, partial curve, poor fit]"
O=C(/N=N/C(=O)OCc1ccccc1)OCc1ccccc1,,"inconclusive [falling, partial curve, poor fit]"
O=Cc1ccc(O)c(O)c1O,,"inconclusive [falling, partial curve, poor fit]"
COC(=O)C1=C(C)NC(C)=C(C(=O)OCC(C)=O)C1c1ccccc1[N+](=O)[O-] (stereo unspecified),,"inconclusive [falling, partial curve]"
COc1nc(C)nc(NC(=O)NS(=O)(=O)c2ccccc2OCCCl)n1,inactive: -1.86%,
O=[N+]([O-])c1nccn1CO[C@@H](CO)[C@H](O)CO,inactive: 4.74% [at 35.3 µM],
CC(=O)C(=O)CC(C)C,inactive: 4.02%,
CCCSSCCC,inactive: 3.09%,
CC(C)=CC(=O)C=C(C)C,inactive: 0.132%,

# Test: qHTS RealTime-Glo MT Cell Viability Assay in HEK293 cells - 40 hour (AID 1224874); further: nearly all actives have a fitted effect of over 50% in size
# Settings: RealTime-Glo luminescence; max response: hits give low values
# Method in brief: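 qHTS format; HEK293 cells with NanoLuc/prosubstrate reagent, 37 C/5% CO2 for 5 h pre-dosing; compounds 23 nL in DMSO; luminescence at each time point reflects viable cells.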
Structure (SMILES),max response,Potency
O=c1[nH]c(=O)c2[nH]c(=O)[nH]c2[nH]1,inactive: 10.6%,
O=C(O)CNCC(=O)O,inactive: -8.46%,
CCCCN(CCCC)CCCCCCN(CCCC)CCCC,inactive: -10.4%,
CCCCCCC1CCCC(=O)O1 (stereo unspecified),inactive: 3.13%,
C[C@@]12CCC[C@H]1[C@@H]1CC[C@H]3C[C@@H](O)CC[C@]3(C)[C@H]1CC2,inactive: 5.8%,
CC(C)(C)S,inactive: -0.0448%,
NS(=O)(=O)c1cc2c(cc1Cl)NC=NS2(=O)=O,inactive: 7.37% and inactive: 0.52%,
CC(C)(C)OC(=O)N1C[C@@H](F)C[C@H]1C(=O)O,inactive: 2.11%,
CC(C)(C)C(=O)OCOC(=O)[C@@H]1N2C(=O)[C@@H](NC(=O)[C@H](N)c3ccccc3)[C@H]2SC1(C)C,inactive: 5.37%,
Nc1c(Cl)cc(Cl)cc1[N+](=O)[O-],inactive: 7.12%,
C=C(C)[C@H]1CC=C(C)C(=O)C1,inactive: -1.87% and inactive: 0.747%,
C=C(CC(=O)O)C(=O)O,inactive: 2.09% and inactive: -0.881%,
CCCOC(=O)C(C)O (stereo unspecified),inactive: -7.32%,
CCc1cccc2c3c([nH]c12)C(CC)(CC(=O)O)OCC3 (stereo unspecified),inactive: 0.853% and inactive: 0.265%,
[Cl][Nd]([Cl])[Cl],inactive: 2.18%,
CCOCCOC(=O)/C=C/c1ccc(OC)cc1,inactive: 4.37%,
Clc1cc(Cl)c(Cl)cc1Cl,inactive: 4.68% and inactive: 15.5%,
CCCCNS(=O)(=O)c1ccc(C)cc1,inactive: -16.6%,
CCOC(=O)/C=C\C(=O)OCC,inactive: 0.421% and inactive: 21.2%,
O=C1NC(=O)[C@@]2(CCOc3ccc(F)cc32)N1,inactive: 10%,
NCC1(Cc2noc(=O)[nH]2)CCCCC1,,"inconclusive [rising, partial curve, poor fit]"
CCN(CC)C(=O)N(CC)CC,inactive: 4.58%,
OCC(CO)n1cnc(-c2ccc(F)cc2)c1-c1ccnc(Oc2ccccc2)n1,,"inconclusive [cytotoxic, partial curve, poor fit]"
c1ccc(CCc2ccccc2)cc1,inactive: -4.4%,
CCCCC/C=C/CC1CC(=O)OC1=O (stereo unspecified),inactive: 1.06%,
CCCCCCC(C)(C)S,inactive: 2.32% and inactive: -0.908%,
NCCCC[C@H](N[C@@H](CCc1ccccc1)C(=O)O)C(=O)N1CCC[C@H]1C(=O)O,,"inconclusive [cytotoxic, single point]"
CCCN1CCCC[C@H]1C(=O)Nc1c(C)cccc1C,inactive: 3.8%,
CCOC(=O)[C@H](CCc1ccccc1)N[C@@H](C)C(=O)N1C(=O)N(C)C[C@H]1C(=O)O,inactive: 1.75%,
CC(C)=CC(=O)C=C(C)C,inactive: 9.12%,
